About 14,000 (4.5%) of roughly 310,000 compounds showed an effect of 50% or more. Effects have a minus sign here. This is one part of the list.
Biological target: human ether-à-go-go-related gene (hERG) potassium channel (human, UniProt Q12809)
Experiment: primary screen, population patch clamp on CHO cells stably expressing hERG
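Also: peak tail current of the secondary pulse compared with the same well before compound.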

human ether-à-go-go-related gene (hERG) potassium channel, sequence (Q12809 whole entry, looked up): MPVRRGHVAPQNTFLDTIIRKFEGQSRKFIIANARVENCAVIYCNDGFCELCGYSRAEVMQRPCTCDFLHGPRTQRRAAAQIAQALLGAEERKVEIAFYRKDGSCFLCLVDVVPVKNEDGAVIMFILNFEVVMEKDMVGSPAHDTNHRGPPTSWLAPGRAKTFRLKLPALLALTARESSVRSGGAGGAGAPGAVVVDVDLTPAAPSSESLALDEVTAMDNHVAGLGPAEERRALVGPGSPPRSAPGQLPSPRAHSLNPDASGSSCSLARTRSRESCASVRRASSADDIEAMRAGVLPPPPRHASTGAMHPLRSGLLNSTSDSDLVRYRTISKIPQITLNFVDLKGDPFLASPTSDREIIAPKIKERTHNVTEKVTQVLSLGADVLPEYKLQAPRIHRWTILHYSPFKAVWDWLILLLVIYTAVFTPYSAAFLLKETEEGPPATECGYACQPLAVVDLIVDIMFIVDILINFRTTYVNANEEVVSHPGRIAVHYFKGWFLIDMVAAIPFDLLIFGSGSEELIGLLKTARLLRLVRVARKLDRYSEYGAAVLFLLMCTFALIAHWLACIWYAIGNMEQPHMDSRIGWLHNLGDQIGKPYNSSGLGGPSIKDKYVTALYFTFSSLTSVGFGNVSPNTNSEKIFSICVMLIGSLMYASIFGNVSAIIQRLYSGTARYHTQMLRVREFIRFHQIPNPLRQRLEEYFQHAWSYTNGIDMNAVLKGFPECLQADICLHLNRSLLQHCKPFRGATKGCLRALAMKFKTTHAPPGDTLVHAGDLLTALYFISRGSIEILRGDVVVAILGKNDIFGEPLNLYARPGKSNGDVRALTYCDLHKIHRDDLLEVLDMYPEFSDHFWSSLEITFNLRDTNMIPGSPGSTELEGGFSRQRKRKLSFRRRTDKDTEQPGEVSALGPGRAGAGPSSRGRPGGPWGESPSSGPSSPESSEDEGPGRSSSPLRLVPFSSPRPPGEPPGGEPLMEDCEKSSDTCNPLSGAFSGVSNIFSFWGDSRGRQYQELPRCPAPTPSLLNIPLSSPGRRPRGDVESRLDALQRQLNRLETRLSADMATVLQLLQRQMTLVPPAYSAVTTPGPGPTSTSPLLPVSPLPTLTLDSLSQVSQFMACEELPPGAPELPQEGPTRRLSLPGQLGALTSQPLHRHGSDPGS

| Compound | hERG current change (%, negative = inhibition) at 10uM [%] |
| --- | --- |
| Cc1ccc(C(=O)CSc2nnc(-c3ccc4[nH]c(C)c(C)c4c3)o2)cc1C | 8.42 |
| Cc1nc(CNC(=O)c2cc(COc3c(F)cccc3F)on2)cs1 | -3.86 |
| COc1ccc(/C=N/Nc2nncn2N)cc1Br | 18 |
| Cc1nc2sc(C(N)=O)c(N)c2c2c1CCCC2 | 0.822 |
| O=C(Nc1ccccc1)N1CCC(C(=O)N2CCN(Cc3ccccc3)CC2)CC1 | -26.1 |
| CC(=O)c1ccc(OCC(=O)N2CCCC(Nc3ccc(C)c(C)c3)C2)cc1 (centres unmarked) | -1.47 |
| O=C(O)C1C2CCC(C2)C1C(=O)NCCc1ccccc1 (centres unmarked) | -2.47 |
| COc1ccccc1NC(=O)Cc1ccc(-c2ccccc2)cc1 | 13.6 |
| CN(C)C(=C(C#N)C#N)N1CCN(c2ccc(Cl)c(Cl)c2)CC1 | -63.2 |
| Cn1ccnc1-c1ccc(-c2nccn2C)cc1 | 9.89 |
| COc1cc(OC)cc(C(=O)NCC(=O)OCC(=O)/C=C2/N(C)c3ccccc3C2(C)C)c1 | 2.69 |
| Cc1ccc(-n2c(=O)cc(NCc3cccnc3)[nH]c2=O)cc1 | -65.5 |
| C=CCC1c2cccc(C(=O)O)c2C(=O)N1c1ccc(Cl)cc1 (centres unmarked) | -5.49 |
| CCn1c(SCc2c(F)cccc2Cl)nnc1-c1ccco1 | -16.4 |
| O=C(Nc1ccncc1)c1cccs1 | -5.03 |
| c1ccc2c(c1)Sc1ccccc1N2CC1CN2CCC1CC2 (centres unmarked) | -53.1 |
| CCc1nnc(NC(=O)C2CCN(S(=O)(=O)Cc3ccccc3)CC2)s1 | 3.78 |
| C=CCN(CC(=O)NC1CCS(=O)(=O)C1)S(=O)(=O)c1ccccc1C(F)(F)F (centres unmarked) | 54.9 |
| Cc1ccccc1-n1c(=O)n(Cc2ccccc2)c(=O)c2[nH]cnc21 | -4.59 |
| CCCc1nnc(SCC(=O)N2C(C)CCCC2C)n1CC1CCCO1 (centres unmarked) | -1.21 |
| CN(C)S(=O)(=O)c1ccc(SCC(=O)N2CC(=O)Nc3ccccc32)nc1 | 4.23 |
| CC(C)N1C(=O)CCC1C(=O)N1CCN(c2ccccn2)CC1 (centres unmarked) | 7.85 |
| O=C(NCc1cccnc1)c1ccc(S(=O)(=O)N2CCCCCC2)cc1 | -14 |

| Compound | hERG current change (%, negative = inhibition) at 10uM [%] |
| --- | --- |
| COc1ccc(CCC(=O)OCC(=O)Nc2ccc(OC)c(OC)c2)cc1OC | 10.5 |
| CNC(=O)COC(=O)/C=C/c1cn(-c2ccccc2)nc1-c1ccc(C)o1 | -2.06 |
| Cc1ccccc1N1CCN(C2CCCN(C(=O)c3csc(C(C)C)n3)C2)CC1 (centres unmarked) | -43 |
| O=C1COc2ccc(S(=O)(=O)Nc3ccc(OC(F)(F)F)cc3)cc2N1 | 13.3 |
| COc1cccc(NC(=O)CSc2nc3ccccc3cc2Cc2ccccc2)c1 | -3.83 |
| CN(C)S(=O)(=O)c1cc(NC(=O)CNCc2ccc(F)cc2)ccc1Cl.O=C(O)C(=O)O | -43.6 |
| Cc1cc(C)c2c(=O)[nH]c(SCC(=O)Nc3ccc(Br)cc3)nc2n1 | 29.4 |
| C=CCNCCOc1ccccc1-c1ccccc1.O=C(O)C(=O)O | -12.6 |
| O=C(COC(=O)c1ccc(Br)o1)NC1CCCc2ccccc21 (centres unmarked) | 4.1 |
| CCC1(CC)Cc2ccccc2C(=C(C#N)C#N)N1 | 6.52 |
| O=C1CNC(=S)N1CCOc1ccccc1 | 11.3 |
| O=C(O)c1ccc(S(=O)(=O)N(Cc2cccs2)CC2CCCO2)cc1 (centres unmarked) | -16.4 |
| CCN1CCN(CCCOc2ccc(Cl)cc2Br)CC1.O=C(O)C(=O)O | -69 |
| Cc1ccc(S(=O)(=O)N2CCN(CC(=O)N/N=C\c3ccncc3)CC2)cc1 | -66.8 |
| CC(C)(CC(=O)O)CC(=O)N1CCN(c2nc3cc(Cl)ccc3s2)CC1 | 5.2 |
| COC(=O)C1=C(C)N(Cc2ccco2)C(=O)/C1=C\c1ccc([N+](=O)[O-])cc1 | -22.7 |
| N/C(=N\OC(=O)CSc1ccccc1)c1ccccn1 | 6.31 |
| CC(C)C(=O)Nc1cccc(C(=O)NCc2ccc(S(N)(=O)=O)cc2)c1 | 3.17 |
| COc1ccccc1N1CCN(C2CCN(C(=O)c3cccc(F)c3)CC2)CC1.O=C(O)C(=O)O | -33.1 |
| O=[N+]([O-])c1ccc2nccn2c1 | -1.14 |
| CCC(C)N1C(=O)NC(=O)C2(Cc3c(ccc4ccccc34)N(C)C2)C1=O (centres unmarked) | 2.18 |
| CCc1nn(CC(=O)N2CCN(CC)CC2)c(=O)c2cccn12 | 9.19 |
| CCOC(=O)c1c(C)sc2c1N(C(C)=O)c1cc(Cl)ccc1S2 | -8.01 |

| Compound | hERG current change (%, negative = inhibition) at 10uM [%] |
| --- | --- |
| COc1cc(C(=O)NNC(=O)COc2ccc(Cl)cc2)ccc1OCC(=O)N1CCOCC1 | -2.19 |
| COc1cc(CN2CCNC(=O)C2CC(=O)N2CCc3ccccc3C2)cc(OC)c1 (centres unmarked) | -2.39 |
| CCC(=O)OCc1c(C(F)(F)F)nn(C)c1Sc1ccc(F)cc1 | -8.79 |
| Cc1ccccc1NC(=O)c1ccccc1NC(=O)CCC(=O)O | 10.4 |
| O=c1c(CN2CCN(c3cccc(Cl)c3)CC2)coc2c(Cl)cc(Cl)cc12 | 12.7 |
| Clc1cc(-c2ccc(/C=N/n3cnnc3)o2)ccc1Br | -2.25 |
| O=c1[nH]c(SCc2ccccc2)nc2c1sc1ccccc12 | 6.18 |
| CCOC(=O)C1=C(C)NC2=C(C(=O)CC(C)(C)C2)C1c1ccc(O)c(OCC)c1 (centres unmarked) | 12.3 |
| CCN(CC)S(=O)(=O)c1ccc(OC)c(NC(=O)C(C)Oc2ccc3c(C)cc(=O)oc3c2)c1 (centres unmarked) | -26.3 |
| COc1ccc(CCNC(=O)C(=O)NCC2OCCCN2S(=O)(=O)c2cc(C)ccc2C)cc1 (centres unmarked) | 7.16 |
| COC(=O)c1ccc(C(=O)OC)c(NC(=S)N2CCCCC2)c1 | -24.9 |
| CN1C(=O)/C(=C/c2cn(CC(=O)N3CCCCC3)c3ccccc23)c2ccccc21 | 10.8 |
| COC(=O)c1ccc(NC(=S)NCCc2cccc(C)c2)cc1 | -2.3 |
| O=C(O)CCc1ccc(-c2ccccc2)n1-c1ccc(C(=O)O)cc1 | 11.4 |
| CCOc1ccc(C(C)C)cc1S(=O)(=O)n1ccnc1C | -8.28 |
| CSc1nnc(C)c(/C=C/NOCc2cccc(F)c2)n1 | 4.03 |
| Cc1cc2ncn(S(=O)(=O)N(C)C)c2cc1C | 16.1 |
| CCc1ccc(-c2cn(C3CCCCC3)c(=S)[nH]2)cc1 | 3.42 |
| Cc1cc(/C([O-])=C(/C(=S)Nc2ccccc2)[n+]2ccccc2)c(C)n1-c1ccccc1 | 6.17 |
| CCOC(=O)CSc1nnc(NC(=O)c2ccco2)s1 | 11.8 |
| COC(=O)c1c(NC(=O)c2ccccc2)sc2c1CC(C)(C)OC2 | -16.1 |
| C[C@@H](NC(=O)OC(C)(C)C)c1nnc(S(=O)(=O)Cc2ccccc2)o1 | 8.29 |
| CCOC(=O)c1cnc2c(C)c(Cl)ccc2c1Nc1ccc(S(=O)(=O)Nc2ncccn2)cc1 | 10.7 |

| Compound | hERG current change (%, negative = inhibition) at 10uM [%] |
| --- | --- |
| CCCCCOc1ccc(NC(=O)C(=O)NCCCn2ccnc2)cc1 | 2 |
| COc1ccc(N(CC(=O)Nc2ccccc2Cl)S(=O)(=O)c2ccc(C)cc2)cc1OC | 4.36 |
| Nc1cc(C(F)(F)F)ccc1N1CCOCC1 | 13.8 |
| Cc1ccc(NC(=O)c2cc(S(=O)(=O)N3CCC4(CC3)OCCO4)ccc2F)cc1 | -2.9 |
| CN(C)C(=O)COn1c(SCC(=O)N(C)C)nc2ccccc2c1=O | -4.61 |
| C=CCN(CC=C)C(=O)C1CCN(S(=O)(=O)c2ccc(N3CCCC3=O)cc2)CC1 | 5.01 |
| O=C(NCCc1ccc(F)cc1)C1CCCCC1 | 12.1 |
| Cc1c(NC(=O)c2cc3c(=O)n4ccccc4nc3s2)c(=O)n(-c2ccccc2)n1C | 8.11 |
| Cc1cccc(CNc2ncnc3ccc(-c4ccccc4Cl)cc23)c1 | 2.9 |
| Nc1c(Cl)cc(C2=NCCn3c2c2ccc(C(F)(F)F)cc2[n+]3[O-])cc1Cl | -26.1 |
| O=C(NC1CCN(Cc2ccccc2)CC1)c1cc(Br)c(Br)[nH]1 | -2.75 |
| Cc1oc(-c2ccccc2)nc1C(=O)OCC(=O)NCc1ccccc1 | -23.9 |
| Fc1ccc(CCN2CCN=C2Nc2ccccc2)cc1 | -43.2 |
| Cc1ccc(-n2cnc(=O)c3cccnc32)cc1 | 1.62 |
| O=C(Nc1nc2ccccc2[nH]1)C12CC3CC(CC(C3)C1)C2 | 14.4 |
| Cc1cc(OC(=O)N2CCOCC2)cc(C)c1Cl | 1.27 |
| Cc1cc(Cl)ccc1OCC(=O)N/N=C/c1ccc(OC2OC(CO)C(O)C(O)C2O)cc1 (centres unmarked) | -1.22 |
| CCN(CC(=O)Nc1c(F)cccc1F)C(=O)C1CCCN(C(=O)c2ccc(Cl)cc2)C1 (centres unmarked) | -31.5 |
| Cc1c(C(=O)N2CCCC2)oc2c1-c1[nH]ncc1CC2 | 4.93 |
| CCCc1ccc(OCc2ccc(C(=O)Nc3cccc(C)n3)o2)c(OC)c1 | 16.4 |
